Experimental data: a compilation of properties of binary mixtures (doi:10.1021/acs.jced.1c00419)
Some of these densities may be calculated back from excess volumes.

Experiment: xn = mol fraction of the nth substance listed
Conditions: 101.3 kPa

CCCCCCCCn1cc[n+](C)c1.F[B-](F)(F)F + NC1CCCCC1
mass density [kg/m3]
Conditions	x1 = 0.1076	x1 = 0.203	x1 = 0.3072	x1 = 0.4001	x1 = 0.492	x1 = 0.6078	x1 = 0.7023	x1 = 0.7996	x1 = 0.8963
293.15 K	–	961.7	–	1018.7	–	1059	1073.2	1086	–
298.15 K	919.4	–	991.1	1015	1034.9	1055.4	–	1082.6	1094
303.15 K	–	–	987.3	1011.2	1031.2	1051.9	1066.2	1079.2	1090.6
308.15 K	911	949.6	–	1007.8	1027.7	1048.4	1062.8	1076	1087.3
313.15 K	906.9	945.7	979.7	1004	–	1045	1059.4	1072.6	1084
318.15 K	902.5	941.5	–	–	1020.3	–	–	1069	1080.4
323.15 K	–	937.3	971.6	996.3	1016.5	1037.7	1052.3	1065.5	–

CCCCCC[n+]1ccn(C)c1.F[B-](F)(F)F + NC1CCCCC1
mass density [kg/m3]
Conditions	x1 = 0.097	x1 = 0.1808	x1 = 0.2945	x1 = 0.396	x1 = 0.5009	x1 = 0.6048	x1 = 0.7029	x1 = 0.8008	x1 = 0.8991
293.15 K	920.8	958.8	1001.4	–	1059.4	1082.4	1101.2	–	1133.7
298.15 K	–	–	997.5	1028.9	1055.9	1078.8	1097.7	1114.6	–
303.15 K	912.6	950.8	993.5	1024.9	1052.1	–	1094.2	1111.1	1126.7
308.15 K	908.3	946.6	989.5	1020.9	1048.2	1071.1	1090.2	–	–
313.15 K	–	942.7	985.8	1017.4	1044.7	–	1087.1	1104.1	1119.9
318.15 K	899.9	938.5	981.9	1013.9	1041.4	1064.6	1083.8	1100.9	–
323.15 K	895.4	934.2	–	–	–	1060.5	–	1096.8	1112.5
